Key:
Details in all cases: 72 h
[1] = test system: Caco-2; assay: cell viability relative to DMSO; higher = less toxic
[2] = test system: Calu-3; assay: as above
[3] = test system: HepG2; assay: as above
[4] = test system: U2OS; assay: as above
[5] = test system: Vero E6; assay: as above
[6] = test system: Caco-2; assay: relative viability EC50 (midpoint between 100% and the lowest measured viability); higher = less toxic
[7] = test system: Calu-3; assay: as above
[8] = test system: HepG2; assay: as above
[9] = test system: U2OS; assay: as above
[10] = test system: Vero E6; assay: as above
[11] = test system: Caco-2; assay: drug sensitivity score (DSS) for viability; higher = more toxic; extreme values may be limits of the assay
[12] = test system: Calu-3; assay: as above
[13] = test system: HepG2; assay: as above
[14] = test system: U2OS; assay: as above
[15] = test system: Vero E6; assay: as above

Cc1ccccc1-n1c(Cn2nc(-c3cccc(O)c3)c3c(N)ncnc32)nc2cccc(C)c2c1=O [PIK-294]
cell viability ([1]; 1 nM): 105% | cell viability ([1]; 10 nM): 97.4% | cell viability ([1]; 100 nM): 107% | cell viability ([1]; 1000 nM): 95% | cell viability ([1]; 10000 nM): 76.5% | cell viability ([2]; 1 nM): 97.3% | cell viability ([2]; 10 nM): 94% | cell viability ([2]; 100 nM): 96.7% | cell viability ([2]; 1000 nM): 88.3% | cell viability ([2]; 10000 nM): 82.9% | cell viability ([3]; 1 nM): 99.6% | cell viability ([3]; 10 nM): 111% | cell viability ([3]; 100 nM): 104% | cell viability ([3]; 1000 nM): 97.1% | cell viability ([3]; 10000 nM): 87.4% | cell viability ([4]; 1 nM): 95.6% | cell viability ([4]; 10 nM): 96.1% | cell viability ([4]; 100 nM): 99.6% | cell viability ([4]; 1000 nM): 94.9% | cell viability ([4]; 10000 nM): 94.4% | cell viability ([5]; 1 nM): 104% | cell viability ([5]; 10 nM): 103% | cell viability ([5]; 100 nM): 102% | cell viability ([5]; 1000 nM): 95.9% | cell viability ([5]; 10000 nM): 88.7% | relative viability EC50 [6]: > 10 µM | relative viability EC50 [7]: > 10 µM | relative viability EC50 [8]: > 10 µM | relative viability EC50 [9]: > 10 µM | relative viability EC50 [10]: > 10 µM | drug sensitivity score [11]: 1.6 | drug sensitivity score [12]: 0.8 | drug sensitivity score [13]: 0.2 | drug sensitivity score [14]: 0 | drug sensitivity score [15]: 0.1

— the supplement of paper PMC13380429
